Assay results from the supplement of paper PMC9446081.
Screen size: about 39,000 compounds; about 220 (0.56%) showed activity. The list shows a part of the results.

What follows are molecules tested on Escherichia coli K-12 BW25113 (assay: relative growth (OD600 normalised to plate interquartile mean) (fraction); higher = less growth inhibition, active = 0.2 or less). Details: 50 µM; LB; incubation time: overnight (16-24 h).
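Further: static incubation at 37 °C against the wild-type strain, values averaged over two biological replicates.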

Compound | relative growth
COc1ccc(C#Cc2ccc3c(c2)[C@]2(C(=O)N3)[C@H](C(N)=O)[C@H]3C(=O)O[C@H](c4ccccc4)[C@H](c4ccccc4)N3[C@@H]2c2ccc(OCCO)cc2)cc1 | inactive: 1.05
C[C@@H]1CN([C@@H](C)CO)C(=O)c2cc(NC(=O)Nc3ccccc3)ccc2O[C@@H](C)CCCCO[C@@H]1CN(C)C(=O)Cc1ccccc1 | inactive: 0.999
Cc1ccc(S(=O)(=O)N(C)C[C@H]2Oc3ncc(C#CC4(O)CCCC4)cc3C(=O)N([C@@H](C)CO)C[C@H]2C)cc1 | inactive: 1.01
COCCNC(=O)C[C@H]1C[C@H]2c3cc(NC(=O)CN(C)C)ccc3O[C@H]2[C@@H](CO)O1 | inactive: 1.02
C[C@@H]1CN([C@@H](C)CO)C(=O)c2cc(-c3cccnc3)cnc2O[C@@H]1CN(C)Cc1ccc(-c2ccccc2)cc1 | inactive: 1.01
COc1ccncc1-c1ccccc1CN(C(=O)c1ccc(-c2ccc(C#N)cc2)o1)c1ccc(N2CCNCC2)cc1 | inactive: 0.975
Cc1noc(C)c1S(=O)(=O)Nc1ccc2c(c1)C(=O)N([C@H](C)CO)C[C@H](C)[C@@H](CN(C)Cc1ccc(C(=O)Nc3ccccc3N)cc1)OCCCC[C@@H](C)O2 | inactive: 1.01
C[C@@H]1CN([C@H](C)CO)C(=O)c2cccc(NC(=O)c3ccncc3)c2O[C@H]1CN(C)C(=O)Nc1ccc2c(c1)OCO2 | inactive: 0.987
COc1ccc(NC(=O)Nc2ccc3c(c2)C(=O)N([C@H](C)CO)C[C@H](C)[C@H](CN(C)C(=O)c2ccccc2)OCCCC[C@H](C)O3)cc1 | inactive: 1.03
COc1ccc2c(c1)OCC(Cc1ccc(OC)c(OC)c1)C2=O (centres undefined) | inactive: 1.11
C[C@H](CO)N1C[C@H](C)[C@H](CN(C)C(=O)NC2CCCCC2)Oc2ccc(NC(=O)CCCN(C)C)cc2C1=O | inactive: 1
O=C(C[C@H]1C=C[C@H](NS(=O)(=O)c2ccc(F)cc2)[C@@H](CO)O1)NCCN1CCCCC1 | inactive: 1
CO[C@H]1CN(C)C(=O)c2cc(NS(C)(=O)=O)ccc2OC[C@H](C)N(C(=O)CN(C)C)C[C@@H]1C | inactive: 0.958
O=C(O)Cn1cc(Br)c(=O)[nH]c1=O | inactive: 1.05
COCC(=O)Nc1ccc2c(c1)C(=O)N(C)C[C@H](OC)[C@H](C)CN(C(=O)c1ccccc1F)[C@@H](C)CO2 | inactive: 0.997
COc1ccc(S(=O)(=O)Nc2ccc3c(c2)C(=O)N([C@H](C)CO)C[C@H](C)[C@H](CN(C)C(=O)Nc2ccc(F)cc2)OCCCC[C@@H](C)O3)cc1 | inactive: 1.01
COc1ccc(NC(=O)Nc2ccc3c(c2)C(=O)N([C@H](C)CO)C[C@H](C)[C@@H](CN(C)CC2CCCCC2)OCCCC[C@@H](C)O3)cc1 | inactive: 0.981
CN1C(=O)c2cc(NC(=O)c3cccs3)ccc2OC[C@@H]2O[C@@H](CC(=O)NCC(F)(F)F)CC[C@H]21 | inactive: 1.01
Cc1ccccc1S(=O)(=O)N1C[C@@H](O)COC[C@@H]2O[C@H](CC(=O)NCCc3ccncc3)CC[C@H]21 | inactive: 0.991
C[C@@H]1CN([C@@H](C)CO)C(=O)c2cc(NC(=O)Nc3ccc4c(c3)OCO4)ccc2O[C@@H](C)CCCCO[C@@H]1CN(C)S(=O)(=O)c1ccc(Cl)cc1 | inactive: 1.05

Compound | relative growth
O=C(N[C@H]1C=C[C@@H](CC(=O)N2CCOCC2)O[C@H]1CO)c1ccc2c(c1)OCO2 | inactive: 1.01
COCC(=O)Nc1ccc2c(c1)C(=O)N(C)C[C@@H](OC)[C@H](C)CN(Cc1cccc(F)c1)[C@H](C)CO2 | inactive: 1.02
COc1ccc(S(=O)(=O)Nc2cccc3c2O[C@@H](CN(C)C(=O)Nc2cccc4ccccc24)[C@H](C)CN([C@H](C)CO)C3=O)cc1 | inactive: 0.995
O=C(Nc1cccc2cccnc12)[C@@H]1[C@H](c2ccc(-c3ccccc3)cc2)CC(=O)N1C(=O)OCc1ccccc1 | inactive: 1.05
CCOC(=O)[C@@H](N)Cc1ccc(O)c(O)c1 | inactive: 0.983
C[C@H](CO)N1C[C@H](C)[C@H](CN(C)C(=O)Nc2cccc(Oc3ccccn3)c2)OCc2cnnn2CCCC1=O | inactive: 0.989
C[C@@H]1CN([C@@H](C)CO)C(=O)Cc2cc(NC(=O)CCCN(C)C)ccc2O[C@@H]1CN(C)S(=O)(=O)c1ccccc1 | inactive: 0.988
C[C@H]1CN([C@@H](C)CO)C(=O)Cc2cc(NC(=O)CCCCCC(=O)Nc3ccccc3N)ccc2O[C@@H]1CN(C)Cc1ccc(Cl)c(Cl)c1 | inactive: 0.982
CC(=O)N(C)C[C@H]1Oc2ncc(C#C[C@@H](C)O)cc2C(=O)N([C@H](C)CO)C[C@@H]1C | inactive: 0.996
C[C@H]1CN([C@@H](C)CO)C(=O)c2cccc(NS(=O)(=O)c3ccccc3)c2O[C@H]1CN(C)S(=O)(=O)c1cccs1 | inactive: 0.977
C[C@H](CO)N1C[C@H](C)[C@@H](CN(C)Cc2ccc(Cl)c(Cl)c2)Oc2c(NS(=O)(=O)c3ccc(Cl)cc3)cccc2C1=O | inactive: 1
CC(C)NC(=O)Nc1ccc2c(c1)C(=O)N([C@H](C)CO)C[C@H](C)[C@@H](CN(C)C(=O)Nc1ccc(C(F)(F)F)cc1)OCCCC[C@@H](C)O2 | inactive: 1
CC(C)[C@@H](O)C[C@@H](C)O[C@@H]1O[C@H](CO[C@@H]2OC[C@](O)(CO)[C@H]2O)[C@@H](O)[C@H](O)[C@H]1O | inactive: 0.911
Cc1ccc(S(=O)(=O)Nc2ccc3c(c2)CC(=O)N([C@@H](C)CO)C[C@H](C)[C@@H](CN(C)Cc2ccc(Oc4ccccc4)cc2)O3)cc1 | inactive: 1.05
C[C@@H]1Cn2nncc2CO1 | inactive: 1.01
COCC(=O)Nc1ccc2c(c1)OC[C@H](C)N(Cc1cccc(F)c1)C[C@H](C)[C@H](OC)CN(C)C2=O | inactive: 0.987
C[C@@H]1CN([C@@H](C)CO)C(=O)c2cc(NC(=O)C3CCCCC3)ccc2O[C@@H](C)CCCCO[C@H]1CN(C)Cc1ccncc1 | inactive: 0.992
CCc1nc2ccc(C(=O)Nc3cc(-c4ccccc4)ccc3OC)cn2c1N(C)C(=O)Cc1ccccc1 | inactive: 1.04
Cc1ccccc1S(=O)(=O)N1C[C@H](O)COC[C@@H]2O[C@H](CC(=O)NCc3ccccc3Cl)CC[C@H]21 | inactive: 1.01
C[N+](C)(C)CCCC[C@@H]1NC(=O)[C@H]2C[C@@H](C(=O)NCCCCCCNC(=O)CS)[C@@H](c3ccc(O)cc3)N2C1=O | inactive: 0.955

Compound | relative growth
CN(C)c1nc(NCCO)c2cnn(C)c2n1 | inactive: 0.994
CCCNC(=O)C[C@H]1CC[C@H]2[C@@H](COC[C@@H](O)CN2S(=O)(=O)c2ccc(Oc3ccccc3)cc2)O1 | inactive: 0.997
Cc1noc(C)c1NC(=O)Nc1ccc2c(c1)CC(=O)N([C@@H](C)CO)C[C@@H](C)[C@@H](CN(C)S(=O)(=O)c1ccccc1)O2 | inactive: 0.995
C[C@@H]1CCCCO[C@H](CN(C)C(=O)C2CCCCC2)[C@@H](C)CN([C@H](C)CO)C(=O)c2cc(NC(=O)Cc3ccccc3)ccc2O1 | inactive: 1.03
Cc1noc(C)c1NC(=O)N(C)C[C@@H]1Oc2ccc(NS(C)(=O)=O)cc2C(=O)N([C@H](C)CO)C[C@H]1C | inactive: 1.02
Cc1noc(C)c1NC(=O)N(C)C[C@H]1OCCCC[C@@H](C)Oc2ccc(NS(=O)(=O)c3cccs3)cc2C(=O)N([C@H](C)CO)C[C@@H]1C | inactive: 0.982
COc1ccc2cc1/C=C\NC(=O)[C@H](Cc1ccccc1)NC(=O)[C@@H]1[C@H](CCN1C(=O)[C@@H](NC(=O)[C@@H](C)N(C)C)C(C)C)O2 | inactive: 1
C[C@@H]1CN([C@H](C)CO)C(=O)c2cc(NC(=O)C3CCCCC3)ccc2O[C@H]1CN(C)Cc1ccc(-c2ccccc2)cc1 | inactive: 1.05
C[C@@H]1CCCCO[C@H](CN(C)C(=O)Nc2ccccc2)[C@H](C)CN([C@@H](C)CO)C(=O)c2cc(NS(=O)(=O)c3ccc(F)cc3)ccc2O1 | inactive: 1.03
C=CCN1C(=O)[C@@]2(O[C@@H](CCn3cc([C@H](O)c4ccccc4)nn3)[C@H]([Si](C)(C)c3ccc(OC)cc3)[C@H]2C)c2ccccc21 | inactive: 1.03
C[C@H]1CN([C@@H](C)CO)S(=O)(=O)c2ccc(-c3cccnc3)cc2O[C@@H]1CN(C)CC1CCOCC1 | inactive: 1.02
COc1ccc(NC(=O)Nc2cccc3c2O[C@H](CN(C)Cc2ccc(C(F)(F)F)cc2)[C@H](C)CN([C@H](C)CO)C3=O)cc1 | inactive: 1.02
O=C(C[C@@H]1C=C[C@@H](NC(=O)c2cnccn2)[C@@H](CO)O1)NCc1ccccc1F | inactive: 0.988
C[C@@H]1CN([C@H](C)CO)C(=O)Cc2cc(NC(=O)Cc3ccccc3)ccc2O[C@H]1CN(C)Cc1ccc(C(F)(F)F)cc1 | inactive: 1.08
CN(C)CC(=O)N1[C@@H](CO)[C@@H](c2ccc(C3=CCCC3)cc2)C12CN(S(=O)(=O)Cc1ccccc1)C2 | inactive: 1
C[C@H]1CN([C@@H](C)CO)C(=O)Cc2cc(NC(=O)Nc3ccc(C(F)(F)F)cc3)ccc2O[C@@H]1CN(C)Cc1ccc(C(=O)O)cc1 | inactive: 0.989
CC(=O)OCC[C@H](C)CCC=C(C)C | inactive: 0.982
COC1=C(OC)C(=O)C(CCCCCCCCCC[P+](c2ccccc2)(c2ccccc2)c2ccccc2)=C(C)C1=O | active: 0.0727
C[C@H]1CN([C@@H](C)CO)C(=O)Cc2cc(NC(=O)Cc3ccccc3)ccc2O[C@H]1CN(C)C(=O)Nc1cccc2ccccc12 | inactive: 1
